Values joined by “and” are separate entries in the source; they are usually repeats but may differ in a detail not shown here. Equal values may be shown once. The campaign covered roughly 16,000 compounds. About 40 (0.2%) were called active. Not shown: some 1% with an inconclusive outcome. Calls come from the whole dose curve; as a rule, active = well fitted activation curve with a large enough effect; inconclusive = small, poorly fitted or top-dose-only effect, or another doubt; inactive = no such curve, though single readings can be large or run the other way. The list shows a part of the results.
Molecular target: Rap guanine nucleotide exchange factor 4 (Homo sapiens) (UniProt Q8WZA2)
Chain of UniProt Q8WZA2 (Q8WZA2 whole entry, looked up): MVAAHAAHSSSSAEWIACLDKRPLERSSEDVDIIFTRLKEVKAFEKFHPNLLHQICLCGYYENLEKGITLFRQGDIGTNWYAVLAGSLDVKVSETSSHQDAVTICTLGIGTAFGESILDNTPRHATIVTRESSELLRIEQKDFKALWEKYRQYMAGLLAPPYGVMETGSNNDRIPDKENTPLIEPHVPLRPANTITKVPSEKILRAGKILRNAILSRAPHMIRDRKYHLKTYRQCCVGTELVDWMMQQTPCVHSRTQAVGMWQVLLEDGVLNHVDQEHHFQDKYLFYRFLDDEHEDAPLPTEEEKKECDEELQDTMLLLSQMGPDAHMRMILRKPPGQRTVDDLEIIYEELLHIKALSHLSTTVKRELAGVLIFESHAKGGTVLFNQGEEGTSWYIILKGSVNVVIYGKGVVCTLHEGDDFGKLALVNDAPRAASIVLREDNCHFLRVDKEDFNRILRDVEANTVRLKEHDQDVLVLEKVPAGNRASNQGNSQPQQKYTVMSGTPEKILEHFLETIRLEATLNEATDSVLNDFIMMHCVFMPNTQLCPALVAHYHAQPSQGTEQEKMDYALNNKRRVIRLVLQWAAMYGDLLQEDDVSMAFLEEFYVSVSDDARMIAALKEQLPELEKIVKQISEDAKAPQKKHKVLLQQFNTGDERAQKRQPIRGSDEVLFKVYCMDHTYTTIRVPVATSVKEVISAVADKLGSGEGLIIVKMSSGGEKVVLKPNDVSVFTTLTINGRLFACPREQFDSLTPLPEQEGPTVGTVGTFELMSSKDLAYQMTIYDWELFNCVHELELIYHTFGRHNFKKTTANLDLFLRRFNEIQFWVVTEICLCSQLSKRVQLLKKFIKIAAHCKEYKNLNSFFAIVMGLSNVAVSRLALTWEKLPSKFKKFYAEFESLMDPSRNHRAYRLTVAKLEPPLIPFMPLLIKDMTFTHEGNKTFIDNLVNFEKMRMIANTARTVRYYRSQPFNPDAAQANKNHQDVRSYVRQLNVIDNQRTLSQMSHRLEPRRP
Assay: Validation qHTS for agonist of cAMP-regulated guanine nucleotide exchange factor 4 (EPAC2);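 note: exchange makes BODIPY-GDP fluorescence drop when released from Rap1B; series mostly up to about 150 µM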
Conditions: EPAC2 Rap1B BODIPY-GDP exchange, fluorescence; activation: hits give high values
Summary of the method: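 Fluorescent exchange assay: 100 nM EPAC2 with 250 nM RAP1B-BODIPY-GDP and 50 uM GDP; compound added, 5 min at room temperature, then read (ex 480/em 540 nm) every 5 min for 30 min. Normalized to 6.5 mM cAMP agonist control.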
% is set by controls: 0 for no effect and ±100 for the full control effect.

activation, inactive:
CC[C@@]1(O)C(=O)OCc2c1cc1n(c2=O)Cc2cc3cc(O)ccc3nc2-1 -2.34% and 12.4%
COCCn1c(=O)c(-c2cccs2)nc2cnc(Oc3ccccc3)nc21 -1.42%
COc1ccc(CCN(C)CCc2ccc(OC)c(OC)c2)cc1OC -10.3% [middle of 4 runs]
CC1(CN2CCC(n3c(=O)[nH]c4ccccc43)CC2)OCc2ccccc2-n2cccc21 (stereo not drawn) -4.89%
CC(CCc1ccc(O)cc1)N1CCOc2c(O)cc(-c3nc4ccccc4s3)cc2C1 (stereo not drawn) -4.76%
O=c1c(-c2ccccc2)nc2cnc(N3CCNCC3)nc2n1Cc1ccc(F)cc1 -7.85%
COc1ccc(Oc2ncc3nc(-c4ccc(OC)cc4)c(=O)n(C)c3n2)cc1 -6.44%
Cc1cc(C)n(CC(=O)N2CCC(n3c(C(C)C)nc4cccnc43)CC2)n1 -2.74%
Cc1noc(C)c1C(=O)N1CCC2(CCN(Cc3nccs3)CC2)CC1 -31%
CN1CCN(CCCN2c3ccccc3Sc3ccc(S(=O)(=O)N(C)C)cc32)CC1 -14.5%
COCc1ccc(CN2CCOc3ccc(C4=CCCCC4)cc3C2)o1 -26%
CCCC[P+](CCCC)(CCCC)Cc1ccc(NC(=O)[C@@H](Cc2ccc3ccccc3c2)NC(=NC2CCCCC2)NC2CCCCC2)cc1 -4.51%
Cc1nc2ccccc2nc1CN1CCOc2ccc(CN3CCc4sccc4C3)cc2C1 -7.8%
CS(=O)(=O)Nc1cccc(-c2nc(NC3CC3)c3ccccc3n2)c1 -4.91%
CCCCCCCCC#CCC#CCC#CCCCC(=O)O -4.17%
Cc1c(C(=O)NCC2(c3ccccc3)CCOCC2)cnn1-c1nccc(-c2ccco2)n1 -0.973%
O=c1cc(-c2cc(O)c(O)c(O)c2)oc2cc(O)cc(O)c12 -2.87%
C[C@@H]1CC(=O)NN=C1c1ccc(NN=C(C#N)C#N)cc1 0.0484%
CCCCC[C@H]1CN(Cc2ccccc2)C(=O)[C@@H]1CC(=O)NCc1ccccc1 -19.8%
COc1ccc(-c2nc(C(=O)N3CCN(C)CC3)sc2-c2ccc(OC)cc2)cc1 -30.8%
CC(=O)Nc1ccc(SC[C@H](Cc2ccccc2)N2CC[C@@H](N)CCC2=O)cc1 -6.32%
COc1c(C=O)c(=O)[nH]c2c(OC)cccc12 -7.45%
CC(=O)OCC(=O)[C@@]1(O)CCC2C3CCC4=CC(=O)CC[C@]4(C)C3C(O)C[C@]21C (stereo partly drawn) 5.38%
Cc1noc(C)c1-c1cncnc1Nc1ccccc1 -6.96%
COc1ccc(C(=O)N2CCC3(CCN(Cc4cc(C(F)(F)F)cc(C(F)(F)F)c4)CC3)CC2)cc1 -9.28%
Cc1ccccc1-c1cc(N(C)Cc2ccco2)ncn1 -4.03%
NC(=O)CC[C@@H]1NC(=O)[C@H](Cc2ccccc2)NC(=O)[C@H](Cc2ccc(O)cc2)NC(=O)[C@@H](N)CSSC[C@@H](C(=O)N2CCC[C@H]2C(=O)N[C@@H](CCCN=C(N)N)C(=O)NCC(N)=O)NC(=O)[C@H](CC(N)=O)NC1=O -23.4% and 1.61%
COc1ccccc1C(=O)N[C@@H]1c2ccccc2C2(CCN(Cc3cccnc3)CC2)[C@H]1O -2.5%
CCCCCc1ccc(-c2cn(Cc3ccc4ccccc4c3)nn2)cc1 -18.9%
CC(=O)Nc1cc(C(=O)N2CCSCC2)cc2ncn(CCc3ccccn3)c12 -5.96%
Cc1ncc2c(c1CNC(=O)c1ccc3c(c1)OCO3)CCN(C(=O)c1csc3c1CCCC3)C2 0.836%
CCCCCCCCCCCCCCCCCC(=O)OC[C@@H](O)[C@H]1OC[C@H](O)[C@H]1O -39.6%
N=c1ccn2c(n1)O[C@H]1[C@H](O)[C@@H](CO)O[C@H]12 -2.62% and -11.4%
CC(=O)Oc1c(C)cccc1C(=O)O -9.7%
CN(C)c1nc(-c2ccc3c(c2)OCO3)nc2ccccc12 1.9%
CCCCCCCC/C=C\CCCCCCCC(=O)NCc1ccc(O)c(OC)c1 -71.8% and -45.2%
COc1ccc(C(=O)N2CCC[C@@]3(CCN(Cc4nccs4)C3)C2)cc1 -10.6%
CCN(Cc1ccncc1)Cc1ccc2c(c1)CN(C(=O)c1ccccc1-n1cccn1)CCO2 -10.9%
O=c1c(-c2cc(F)cc(F)c2)nc2cnc(N3CCOCC3)nc2n1CCc1ccccc1 -4.83%
COCCn1c(=O)c(C)nc2cnc(Nc3cccc(OC)c3)nc21 -12.1%
CC(=O)Oc1cc(C(F)(F)F)ccc1C(=O)O -12.5%
CC(C)Cc1ccc([C@H](C)C(=O)O)cc1 -9.96% and -10.2%
COCC(=O)Nc1cc(C(=O)N2CCCC2c2nccs2)c2c(c1)nc(-c1ccncc1)n2C (stereo not drawn) -1.76%
COc1cccc(-c2cncnc2Nc2ccc(F)cc2)c1 -16.3%
CS(=O)(=O)NCc1ccccc1Br -10.2%
COC(=O)C[C@H]1c2cc(F)cc(F)c2S(=O)(=O)N1C1CCN(Cc2ccccc2)CC1 -16.4%
COc1ccc(-n2c(=O)c(C)nc3cnc(OC)nc32)cc1 -13.5%
O=C1CC[C@H](C(=O)O)N1 9.34%
COc1ccc(CCN(C)Cc2cc(-c3cncnc3)ccc2O)cc1OC -2.26%
O=C(c1ccco1)N1CCC2(CCCN(C(c3ccccc3)c3ccccc3)C2)CC1 -45.8%
CNc1ncncc1-c1c(C)noc1C -1.23%
N[C@H](C(=O)O)C1[C@H](C(=O)O)[C@H]1C(=O)O (stereo partly drawn) -6.99%
O=C(O)c1cc(=O)c2cccc(O)c2[nH]1 3.38% and -8.41%

— PubChem BioAssay AID1645887 (National Center for Advancing Translational Sciences (NCATS), 2021)
